# Assay results published in the supplement of paper PMC8728848.
# This is one part of the list.
# B1: PX14375l-pdi-526-25-526 (Parabacteroides distasonis) (protein)
# chain: DEEPKSTLTDVAYYKTQSQMESNVNYLYRTGAIGSYVDFGSAYIGPFASIQEELTGYFSNSYEGQEIVCRYTRELTRQQNTMQLASKMDKVWDDCYRGINVANGAIKHMPEVPMDQATADRLTAEAKFFRAFNYFYLVKTFGAVPFYTDPYELAENMELPRTETSTIYNQIESDLKDAMNVLPEATFAANGHRITKYVAAMTLTDVYMYQHKYAEAAETVRIVVNSNHKLTTNDDLAMNSAFNKLRSTDDLDEAIYAYEYDNQISPSNWLPTYAFDGDASSNGLFGTYAITQKVHGPNDRYLNIYESNDLRRQPNQFYHWTYTNPKTGKVWNSVGNAACCWYYYDEDALLTTGRGTKDWNVYRYAEALLDAAESIAQSTGVTAEAAGYLAQVKARANMEGKTAAEIASSLQSMGKQAFIEECWTERLRELPLEFKMWDMCVRTGMFPNISETTPGQVTYIPLVGAKNASGATIKESDLLWPLSVNEIQRNPSLTQNEGYSAK
# What was measured:
# Assay in all cases: glycan array binding signal (z-score within array); higher = stronger binding
# Details in all cases: glycan notation: IUPAC condensed, linker removed
# [1] = target: GlcNAc(a1-4)Gal(b1-3)GlcNAc
# Procedure, shortened: (§1)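 The Consortium for Functional Glycomics database supplied 3228 glycan arrays, of which those lacking an available protein sequence were dropped. The binding signal, a within-array Z-score, was averaged across arrays of the same protein sequence and across linkers. Negative scores can be read as non-binding.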
# [2] = target: GlcNAc(a1-4)Gal(b1-4)GalNAc
# Procedure, shortened: as §1
# [3] = target: GlcNAc(a1-4)Gal(b1-4)GlcNAc
# Procedure, shortened: as §1
# [4] = target: GlcNAc(a1-4)Gal(b1-4)GlcNAc(b1-3)Gal(b1-4)Glc
# Procedure, shortened: as §1
# [5] = target: GlcNAc(a1-4)Gal(b1-4)GlcNAc(b1-3)Gal(b1-4)GlcNAc
# Procedure, shortened: as §1
# [6] = target: GlcNAc(a1-4)Gal(b1-4)GlcNAc(b1-3)Gal(b1-4)GlcNAc(b1-3)Gal(b1-4)GlcNAc
# Procedure, shortened: as §1
# [7] = target: GlcNAc(a1-4)Gal(b1-4)GlcNAc(b1-3)Gal(b1-4)[Fuc(a1-3)]GlcNAc(b1-3)Gal(b1-4)[Fuc(a1-3)]GlcNAc
# Procedure, shortened: as §1
# [8] = target: GlcNAc(a1-6)Gal(b1-4)GlcNAc
# Procedure, shortened: as §1
# [9] = target: GlcNAc(b1-2)Gal(b1-3)GalNAc
# Procedure, shortened: as §1
# [10] = target: GlcNAc(b1-2)Man(a1-3)[GlcNAc(b1-2)Man(a1-6)]Man(b1-4)GlcNAc(b1-4)GlcNAc
# Procedure, shortened: as §1
# [11] = target: GlcNAc(b1-2)Man(a1-3)[GlcNAc(b1-2)Man(a1-6)]Man(b1-4)GlcNAc(b1-4)[Fuc(a1-6)]GlcNAc
# Procedure, shortened: as §1
# [12] = target: GlcNAc(b1-2)Man(a1-3)[GlcNAc(b1-4)][GlcNAc(b1-2)Man(a1-6)]Man(b1-4)GlcNAc(b1-4)GlcNAc
# Procedure, shortened: as §1
# [13] = target: GlcNAc(b1-2)Man(a1-3)[GlcNAc(b1-4)][GlcNAc(b1-2)Man(a1-6)]Man(b1-4)GlcNAc(b1-4)[Fuc(a1-6)]GlcNAc
# Procedure, shortened: as §1
# [14] = target: GlcNAc(b1-2)[GlcNAc(b1-4)]Man(a1-3)[GlcNAc(b1-2)Man(a1-6)]Man(b1-4)GlcNAc(b1-4)GlcNAc
# Procedure, shortened: as §1
# [15] = target: GlcNAc(b1-2)[GlcNAc(b1-4)]Man(a1-3)[GlcNAc(b1-4)][GlcNAc(b1-2)Man(a1-6)]Man(b1-4)GlcNAc(b1-4)GlcNAc
# Procedure, shortened: as §1
# [16] = target: GlcNAc(b1-2)[GlcNAc(b1-4)]Man(a1-3)[GlcNAc(b1-4)][GlcNAc(b1-2)[GlcNAc(b1-6)]Man(a1-6)]Man(b1-4)GlcNAc(b1-4)GlcNAc
# Procedure, shortened: as §1
# [17] = target: GlcNAc(b1-2)[GlcNAc(b1-4)]Man(a1-3)[GlcNAc(b1-4)][GlcNAc(b1-2)[GlcNAc(b1-6)]Man(a1-6)]Man(b1-4)GlcNAc(b1-4)[Fuc(a1-6)]GlcNAc
# Procedure, shortened: as §1
# [18] = target: GlcNAc(b1-2)[GlcNAc(b1-6)]Man(a1-6)[GlcNAc(b1-2)Man(a1-3)]Man(b1-4)GlcNAc(b1-4)GlcNAc
# Procedure, shortened: as §1
# [19] = target: GlcNAc(b1-2)[GlcNAc(b1-6)]Man(a1-6)[GlcNAc(b1-2)Man(a1-3)]Man(b1-4)GlcNAc(b1-4)[Fuc(a1-6)]GlcNAc
# Procedure, shortened: as §1
# [20] = target: GlcNAc(b1-2)[GlcNAc(b1-6)]Man(a1-6)[GlcNAc(b1-4)][GlcNAc(b1-2)Man(a1-3)]Man(b1-4)GlcNAc(b1-4)GlcNAc
# Procedure, shortened: as §1
# GlcNAc(b1-3)Fuc = target: GlcNAc(b1-3)Fuc
# Procedure, shortened: as §1
# GlcNAc(b1-3)Gal = target: GlcNAc(b1-3)Gal
# Procedure, shortened: as §1
# [21] = target: GlcNAc(b1-3)Gal(b1-3)GalNAc
# Procedure, shortened: as §1
# GlcNAc(b1-3)Gal(b1-4)Glc = target: GlcNAc(b1-3)Gal(b1-4)Glc
# Procedure, shortened: as §1
# [22] = target: GlcNAc(b1-3)Gal(b1-4)GlcNAc
# Procedure, shortened: as §1
# [23] = target: GlcNAc(b1-3)Gal(b1-4)GlcNAc(b1-2)Man(a1-3)[GlcNAc(b1-3)Gal(b1-4)GlcNAc(b1-2)Man(a1-6)]Man(b1-4)GlcNAc(b1-4)GlcNAc
# Procedure, shortened: as §1
# [24] = target: GlcNAc(b1-3)Gal(b1-4)GlcNAc(b1-2)Man(a1-3)[GlcNAc(b1-3)Gal(b1-4)GlcNAc(b1-2)Man(a1-6)]Man(b1-4)GlcNAc(b1-4)[Fuc(a1-6)]GlcNAc
# Procedure, shortened: as §1
# [25] = target: GlcNAc(b1-3)Gal(b1-4)GlcNAc(b1-2)[GlcNAc(b1-3)Gal(b1-4)GlcNAc(b1-6)]Man(a1-6)[GlcNAc(b1-3)Gal(b1-4)GlcNAc(b1-2)Man(a1-3)]Man(b1-4)GlcNAc(b1-4)GlcNAc
# Procedure, shortened: as §1
# [26] = target: GlcNAc(b1-3)Gal(b1-4)GlcNAc(b1-3)Gal(b1-4)GlcNAc
# Procedure, shortened: as §1
# [27] = target: GlcNAc(b1-3)Gal(b1-4)GlcNAc(b1-3)Gal(b1-4)GlcNAc(b1-2)Man(a1-3)[GlcNAc(b1-3)Gal(b1-4)GlcNAc(b1-3)Gal(b1-4)GlcNAc(b1-2)Man(a1-6)]Man(b1-4)GlcNAc(b1-4)GlcNAc
# Procedure, shortened: as §1
# [28] = target: GlcNAc(b1-3)Gal(b1-4)GlcNAc(b1-3)Gal(b1-4)GlcNAc(b1-2)Man(a1-3)[GlcNAc(b1-3)Gal(b1-4)GlcNAc(b1-3)Gal(b1-4)GlcNAc(b1-2)Man(a1-6)]Man(b1-4)GlcNAc(b1-4)[Fuc(a1-6)]GlcNAc
# Procedure, shortened: as §1
# [29] = target: GlcNAc(b1-3)Gal(b1-4)GlcNAc(b1-3)Gal(b1-4)GlcNAc(b1-2)[GlcNAc(b1-3)Gal(b1-4)GlcNAc(b1-3)Gal(b1-4)GlcNAc(b1-6)]Man(a1-6)[GlcNAc(b1-3)Gal(b1-4)GlcNAc(b1-3)Gal(b1-4)GlcNAc(b1-2)Man(a1-3)]Man(b1-4)GlcNAc(b1-4)[Fuc(a1-6)]GlcNAc
# Procedure, shortened: as §1
# [30] = target: GlcNAc(b1-3)Gal(b1-4)GlcNAc(b1-3)Gal(b1-4)GlcNAc(b1-3)Gal(b1-4)GlcNAc(b1-2)Man(a1-3)[GlcNAc(b1-3)Gal(b1-4)GlcNAc(b1-3)Gal(b1-4)GlcNAc(b1-3)Gal(b1-4)GlcNAc(b1-2)Man(a1-6)]Man(b1-4)GlcNAc(b1-4)GlcNAc
# Procedure, shortened: as §1
# [31] = target: GlcNAc(b1-3)Gal(b1-4)GlcNAc(b1-3)Gal(b1-4)GlcNAc(b1-3)Gal(b1-4)GlcNAc(b1-2)Man(a1-3)[GlcNAc(b1-3)Gal(b1-4)GlcNAc(b1-3)Gal(b1-4)GlcNAc(b1-3)Gal(b1-4)GlcNAc(b1-2)Man(a1-6)]Man(b1-4)GlcNAc(b1-4)[Fuc(a1-6)]GlcNAc
# Procedure, shortened: as §1
# [32] = target: GlcNAc(b1-3)Gal(b1-4)GlcNAc(b1-3)Gal(b1-4)GlcNAc(b1-3)Gal(b1-4)GlcNAc(b1-2)[GlcNAc(b1-3)Gal(b1-4)GlcNAc(b1-3)Gal(b1-4)GlcNAc(b1-3)Gal(b1-4)GlcNAc(b1-6)]Man(a1-6)[GlcNAc(b1-3)Gal(b1-4)GlcNAc(b1-3)Gal(b1-4)GlcNAc(b1-3)Gal(b1-4)GlcNAc(b1-2)Man(a1-3)]Man(b1-4)GlcNAc(b1-4)[Fuc(a1-6)]GlcNAc
# Procedure, shortened: as §1
# [33] = target: GlcNAc(b1-3)Gal(b1-4)GlcNAc(b1-3)Gal(b1-4)GlcNAc(b1-3)Gal(b1-4)GlcNAc(b1-3)Gal(b1-4)GlcNAc(b1-2)Man(a1-3)[GlcNAc(b1-3)Gal(b1-4)GlcNAc(b1-3)Gal(b1-4)GlcNAc(b1-3)Gal(b1-4)GlcNAc(b1-3)Gal(b1-4)GlcNAc(b1-2)Man(a1-6)]Man(b1-4)GlcNAc(b1-4)GlcNAc
# Procedure, shortened: as §1
# [34] = target: GlcNAc(b1-3)Gal(b1-4)GlcNAc(b1-3)Gal(b1-4)GlcNAc(b1-3)Gal(b1-4)GlcNAc(b1-3)Gal(b1-4)GlcNAc(b1-2)Man(a1-3)[GlcNAc(b1-3)Gal(b1-4)GlcNAc(b1-3)Gal(b1-4)GlcNAc(b1-3)Gal(b1-4)GlcNAc(b1-3)Gal(b1-4)GlcNAc(b1-2)Man(a1-6)]Man(b1-4)GlcNAc(b1-4)[Fuc(a1-6)]GlcNAc
# Procedure, shortened: as §1
# [35] = target: GlcNAc(b1-3)Gal(b1-4)GlcNAc(b1-3)Gal(b1-4)GlcNAc(b1-3)Gal(b1-4)GlcNAc(b1-3)Gal(b1-4)GlcNAc(b1-2)[GlcNAc(b1-3)Gal(b1-4)GlcNAc(b1-3)Gal(b1-4)GlcNAc(b1-3)Gal(b1-4)GlcNAc(b1-3)Gal(b1-4)GlcNAc(b1-6)]Man(a1-6)[GlcNAc(b1-3)Gal(b1-4)GlcNAc(b1-3)Gal(b1-4)GlcNAc(b1-3)Gal(b1-4)GlcNAc(b1-3)Gal(b1-4)GlcNAc(b1-2)Man(a1-3)]Man(b1-4)GlcNAc(b1-4)[Fuc(a1-6)]GlcNAc
# Procedure, shortened: as §1
binder,measurement,setting,value
B1,glycan array binding signal (z-score),[1],-0.343
same,glycan array binding signal (z-score),[2],-0.157
same,glycan array binding signal (z-score),[3],-0.095
same,glycan array binding signal (z-score),[4],-0.255
same,glycan array binding signal (z-score),[5],-0.254
same,glycan array binding signal (z-score),[6],-0.191
same,glycan array binding signal (z-score),[7],-0.286
same,glycan array binding signal (z-score),[8],-0.382
same,glycan array binding signal (z-score),[9],-0.124
same,glycan array binding signal (z-score),[10],-0.225
same,glycan array binding signal (z-score),[11],0.067
same,glycan array binding signal (z-score),[12],-0.304
same,glycan array binding signal (z-score),[13],-0.202
same,glycan array binding signal (z-score),[14],-0.508
same,glycan array binding signal (z-score),[15],-0.387
same,glycan array binding signal (z-score),[16],-0.349
same,glycan array binding signal (z-score),[17],-0.397
same,glycan array binding signal (z-score),[18],-0.052
same,glycan array binding signal (z-score),[19],-0.107
same,glycan array binding signal (z-score),[20],-0.309
same,glycan array binding signal (z-score),GlcNAc(b1-3)Fuc,-0.349
same,glycan array binding signal (z-score),GlcNAc(b1-3)Gal,-0.32
same,glycan array binding signal (z-score),[21],-0.04
same,glycan array binding signal (z-score),GlcNAc(b1-3)Gal(b1-4)Glc,-0.236
same,glycan array binding signal (z-score),[22],-0.349
same,glycan array binding signal (z-score),[23],-0.322
same,glycan array binding signal (z-score),[24],0.013
same,glycan array binding signal (z-score),[25],0.167
same,glycan array binding signal (z-score),[26],-0.504
same,glycan array binding signal (z-score),[27],-0.17
same,glycan array binding signal (z-score),[28],0.182
same,glycan array binding signal (z-score),[29],0.155
same,glycan array binding signal (z-score),[30],-0.168
same,glycan array binding signal (z-score),[31],0.147
same,glycan array binding signal (z-score),[32],0.491
same,glycan array binding signal (z-score),[33],0.058
same,glycan array binding signal (z-score),[34],-0.366
same,glycan array binding signal (z-score),[35],-0.068
